Assay results: the supplement of paper PMC11417369
± gives the standard deviation of the averaged measurements. The list shows a part of the results.

The sequences below were run on PfAP2-G AP2 domain (GST-tagged) (assay: gcPBM binding intensity (ln(normalized median fluorescence intensity)); higher = stronger DNA binding).
Outline: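 An Agilent 4 × 180k array of primer-extended double-stranded 36-bp intergenic genomic probes, with negative controls, was incubated for 1 h with GST-tagged P. falciparum DNA-binding domains expressed in E. coli. Alexa488 anti-GST antibody detected bound protein, scanned at 488 nm. Binding intensity is the highest Masliner-normalised natural-log median intensity across replicate spots of either probe orientation.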

Sequence | gcPBM binding intensity (ln)
GCTTATATTAATAAGGTGCTTTTTATTTCGTGTGTA [GTGCAC_site9649] | 9.82 ± 0.085
ATTCTTAAAAAATAAGTGCAAAATAATTAAATAAAT | 10.02 ± 0.021
ATATGTCCATATAGTAAATGTTACATTTTAAAGCGC [XGTACX_negctrl_site168] | 10.5 ± 0.53
AAAATATTTATTTTTTGTACACATAAAAACGCACTT [XGTACX_site4132] | 11.4 ± 0.82
CATATTTTGTGAAAAAGTACATATATATATATATAT [XGTACX_site6295] | 11.4 ± 0.98
AGAATGGTTTATAAAGGTACGTAATTTTTAATTTTA [XGTACX_site383] | 10.9 ± 0.52
AAACGTATTCTATAAAGTACATTATTATAGTAGACC [XGTACX_site8068] | 11 ± 0.61
TATTGAATAAAATGCACACGCATGCGTTATTTATTA [CACACA_site3479] | 9.915 ± 0.035
TAAAAAAATTATATTTGTACATATTAATATAGCCTT [XGTACX_site4833] | 10.9 ± 0.56
TATATAAATATATCCACACACATACCTATATTAATA [CACACA_site6184] | 10.1 ± 0.23
GTATTGTATGGATGGGGTACTATATATATATATTTT [XGTACX_site1694] | 11.3 ± 0.83
ACTTTCAACATGAAGTTGCACTTTTTTTTTTTTCTT | 10.09 ± 0.049
TAAGGGAGAGATTTGTATCATAAGCAACTTTCAAAA [CACACA_negctrl_site1436] | 9.96 ± 0.28
TTATAATTAAATTTCACACAGTTCATAACATAATTA [CACACA_site5501] | 9.82 ± 0.085
TTTATATGTTTTAAGTGTACACATATAATGTATTTT [XGTACX_site3069] | 11.6 ± 0.91
TTTTTTAAAAATAACTGTACAGAGGCTGTTAGGATA [XGTACX_site2521] | 11 ± 0.4
TAATTAAATAAAAAAAAATATATATATATATATATA [XGTACX_negctrl_site616] | 10.1 ± 0.87
AGACAATATTAATAAGGTACACATATATATTAAAAA [XGTACX_site6709] | 11.2 ± 0.86
TAAATATATAAATACACACACACCAAAGCAATAGAT [CACACA_site5605] | 10.4 ± 0.23

Sequence | gcPBM binding intensity (ln)
AAAAAAAAAAAAGAAACACACACATATATATATATA [CACACA_site8525] | 9.78 ± 0.4
AGCAGTCGACAGGACAGTACACAGTAGCCAGGAAAT [XGTACX_site4929] | 11 ± 0.7
TCCATATGCATGTATTGTACTGTAATATATTAAAAA [XGTACX_site472] | 10.9 ± 0.64
AAAAAAAAAAAAAAATGTACATGACATGACATGACA [XGTACX_site4020] | 10.9 ± 0.47
TTATATTTTACAAATGCACACATAATTTTTTTTTTT [CACACA_site8890] | 9.9 ± 0.028
TAAAGAAATAAATACATACACACATATATATATATA [CACACA_site3363] | 10.2 ± 0.79
AAACTTTACATTACTTGTACATATATTCTATATAAT [XGTACX_site8640] | 11.1 ± 0.64
CACACTTGCTCCTGTTGTACATAACCATAAGCAACA [XGTACX_site2102] | 11.1 ± 0.73
TGAATATAACAAATATGTACTTAAAATTGTTATATT [XGTACX_site5679] | 11.1 ± 0.76
ATTATTAAAAATATGGGTACATATTATTGTTATATA [XGTACX_site1958] | 11.2 ± 0.84
AAATATATATTCAAAAGTACACAATTTGTTAATAAT [XGTACX_site8917] | 11.4 ± 0.82
TATTTTACGCGGTTTATAATGACATGTTCTATATTT [CACACA_negctrl_site1184] | 10.4 ± 0.23
TTTGATAATAAGATATAATACTTAAATATATATATA [GTGCAC_negctrl_site339] | 9.93 ± 0.39
GTTTTTACTTTTATCTGTACATAATACTACCAATAT [XGTACX_site5414] | 11.2 ± 0.77
TTTTTTTCTTAAAGATGTACTTTTTAAAAACAATCT [XGTACX_site986] | 11.3 ± 0.67
AGACATATTCTTTTTACACACTTGAATAAAAAATAT [CACACA_site1205] | 10.2 ± 0.35
CATTTTATAAAAACAAGTACCCAACATATATATAAT [XGTACX_site5955] | 11.2 ± 0.63
GATGAGGACAGACACACACACATAAGTTGATACATA [CACACA_site7580] | 11.2 ± 0.82
GTTGGGTAATTCGTAACACACATAAAATATATATAA [CACACA_site3986] | 10.13 ± 0.099

Sequence | gcPBM binding intensity (ln)
CACGCGCACCAACACACACACACACCCATATATATA [CACACA_site2204] | 10.5 ± 0.35
CTGTACACTTAAACGGTGCAAAAAGAAAAAAAAGAA | 11.2 ± 0.95
TGCCTATGACATGAATGTACATTAAAATTAAATAAA [XGTACX_site7126] | 10.8 ± 0.52
AAATACATATTTAGAAGTACATTTATACATTTAATA [XGTACX_site8871] | 11.2 ± 0.79
TTCATTAAAGTTATTACACACAGTTCTTCAACCAAA [CACACA_site7613] | 10.2 ± 0.3
ACAGCTCTAGGACATGCATGTTATATAGAAAAAGAG [TGCATGCA_site703] | 10.3 ± 0.23
AAGTTAATGTTTTGCGCACACTTCTTTTTAATATAA [CACACA_site3938] | 10.7 ± 0.38
TTCTTTATATAAACAAGTACATATAAAATACATATA [XGTACX_site8036] | 11.2 ± 0.79
TATATATTAAGATGCACACACAAGAAGTAATTATAA [CACACA_site5726] | 10.2 ± 0.13
ATTTTTTCTTATAAAAAAGAAAAAGAAAAAGAAAAA [CACACA_negctrl_site1216] | 10.2 ± 0.28
AGTATATTTCTAACTTGTACGAAATTAATAATTTAT [XGTACX_site6635] | 10.9 ± 0.74
TGATATAAAATTAAAGTGCAAAAAAAAAATAAAAAA | 10.1 ± 0.33
ATAATATTATGAACCTGTACATAATTTTTCTTTTCT [XGTACX_site3377] | 11 ± 0.67
AAAAAAAAGAAATAGACACACATATATTTTTAAACA [CACACA_site3954] | 9.825 ± 0.078
TATATATAATATGAATGTACACAAAAAGGTAATACA [XGTACX_site6202] | 11.4 ± 0.68
AACAGCATGAAGTAAAGTACTAGTTTTATTTATTTA [XGTACX_site1116] | 10.7 ± 0.4
GGTCTTTTTATGATATGTACTTATATAATATTATAT [XGTACX_site6458] | 11.2 ± 0.76
ATGTAGAAGTAATGCACACATATGTATATATATATA [CACACA_site2494] | 10.2 ± 0.31
TGATAAGTATACTAAAGTACATGAAAAATAACTTCC [XGTACX_site6908] | 11.1 ± 0.76
